Data from the supplement of paper PMC3334620.
The full ranking holds about 33,000 sequences; the median of “E-score (-0.5 to 0.5)” is about -0.011, and the highest 2% start at about 0.28. The list shows a part of the results.

biological target: T1, Gcr1 (UniProt P07261); assay: PBM E-score (8-mer binding enrichment) (E-score (-0.5 to 0.5)); higher = stronger / more preferred TF binding; most listed sequences are background and not binding sites; conditions: protein concentration: 100 nM; construct: GST-full length
T1 sequence: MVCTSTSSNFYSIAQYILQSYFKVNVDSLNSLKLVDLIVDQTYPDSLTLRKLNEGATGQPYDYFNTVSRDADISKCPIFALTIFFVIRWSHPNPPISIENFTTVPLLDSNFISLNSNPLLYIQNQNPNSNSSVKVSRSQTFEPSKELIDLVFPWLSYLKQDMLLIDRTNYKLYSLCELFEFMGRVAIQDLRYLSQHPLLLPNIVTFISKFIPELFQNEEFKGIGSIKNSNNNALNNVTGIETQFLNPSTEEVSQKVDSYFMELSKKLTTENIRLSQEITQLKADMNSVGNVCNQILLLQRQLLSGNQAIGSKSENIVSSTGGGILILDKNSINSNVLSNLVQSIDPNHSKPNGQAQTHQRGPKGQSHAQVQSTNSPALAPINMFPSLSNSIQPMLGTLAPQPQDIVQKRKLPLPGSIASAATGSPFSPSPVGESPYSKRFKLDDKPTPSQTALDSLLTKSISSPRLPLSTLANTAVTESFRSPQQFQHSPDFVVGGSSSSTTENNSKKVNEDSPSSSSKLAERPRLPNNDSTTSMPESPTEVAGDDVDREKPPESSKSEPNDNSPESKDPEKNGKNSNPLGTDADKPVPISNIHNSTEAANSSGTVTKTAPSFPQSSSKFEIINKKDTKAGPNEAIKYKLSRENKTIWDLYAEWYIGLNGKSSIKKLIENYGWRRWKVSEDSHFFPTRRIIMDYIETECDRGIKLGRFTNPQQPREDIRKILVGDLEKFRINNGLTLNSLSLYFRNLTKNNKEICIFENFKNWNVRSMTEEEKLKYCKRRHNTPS
Experimental: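 Universal 'all 10-mer' protein binding microarrays (Agilent AMADID 015681) probed with GST-tagged S. cerevisiae TFs (full-length or DBD) made by in vitro transcription/translation (PURExpress), about 100-200 nM. Bound TF was detected with fluorescent anti-GST. Each ungapped 8-mer (which stands for itself and its reverse complement) is scored by the PBM enrichment score (E-score), a modified Wilcoxon-Mann-Whitney statistic from -0.5 to +0.5, computed with the Universal PBM Analysis Suite. Scale: above 0.35 generally sequence-specific binding.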

Sequence | PBM E-score
ATAGTAAT | -0.0398
AGACCAGG | -0.246
AGTTACAA | 0.153
TCCTTACA | -0.0132
CGTCCTAC | -0.0419
AAGTGTGA | -0.314
GCCACGCA | -0.0993
ATCTGGAA | 0.333
CAAGGGGG | -0.278
CCGTACAC | 0.0747
GCAGTGAC | -0.258
GGCATTCA | -0.0582
GGAAAAAC | 0.137
GTGCTAGA | 0.108
ACACTAAG | -0.00776
TCTATGCA | -0.067
ACGAAGCC | 0.428
GACCACGA | -0.0712
ATGACGTG | -0.193
CACGCGTA | -0.0238
CTGTACCA | -0.0787
AATGCTGC | -0.218
CCCATACC | 0.124
GAACATCC | 0.157
AGCGCAAA | -0.182

Sequence | PBM E-score
AACTAGAT | 0.0667
GACGGCGC | -0.0687
TCATGCGA | -0.0623
ATTTCAAC | 0.0871
CGAGGCAG | -0.193
AACTCTGC | -0.173
GGAAACTA | 0.0975
ATTTCGCG | 0.149
TACCTCTA | 0.238
CTCCGAGA | -0.133
ACGACGGA | -0.111
CAGGGAGA | -0.223
AAGTTGGG | 0.145
AACTAAGC | -0.0406
ACCAGGTG | 0.0473
GAGACCCA | -0.114
GAAAATAA | 0.0639
CATTGCTC | -0.193
CAGTCTTA | -0.215
GGCCCGCC | -0.0815
GTTTAGAA | 0.15
GTTCATTA | 0.0937
ATCTGAGC | 0.124
AGAAGGAC | -0.231
CTGAGATC | -0.0584

Sequence | PBM E-score
ATTCGTTC | 0.0978
GAAAACTC | -0.103
AGTTGAGC | 0.0741
AGAAGGTA | 0.152
AAGTCGAG | -0.13
CCACAGGG | 0.0151
CTGGCGAA | -0.143
CGATGTCC | -0.0084
GGAGTTAA | -0.00026
ATCAGTGA | -0.0259
AAAATGCT | 0.0483
CGTGGTCC | -0.00023
CCTATGAC | -0.0957
ATAAGAAG | 0.381
ACAAGAGT | 0.0659
ATGTTCAG | 0.00413
CACTGTAA | -0.118
CTGACACA | -0.0736
AGGTTCTA | -0.00738
CAAGCAGC | 0.324
ATCCACGA | 0.0269
ATACGCCC | -0.126
GAGGGGGC | -0.229
CATTACTA | -0.187
TGCTTACA | -0.00713

Sequence | PBM E-score
ACGTATTG | -0.0581
GCACGGAC | 0.041
ACGGTCTA | -0.192
GCTCCGGA | 0.121
AGCAACAG | -0.0697
CGCGTCTA | 0.137
TAAATCAA | 0.146
GATCAGCA | -0.192
AGGATCGG | -0.104
AGACCCGC | -0.0645
ACGGATCG | -0.0656
TGAGCCCA | 0.0335
ATGAGACG | -0.154
ACAGAGGA | 0.101
ACCGGAGG | -0.09
AGACCCCA | 0.205
CGATAGAA | 0.122
CTTGGCGC | 0.104
CATATTGG | 0.117
AATAAAGC | -0.0355
CAGTTCGC | -0.0763
GAAATCAA | 0.0443
GGAATCTA | 0.357
CACTCCCC | -0.0729
CCATGGGG | 0.0525

Sequence | PBM E-score
CGAGGTGA | 0.00332
GAGAAGGC | 0.0155
AAATAGTC | -0.0262
AGCCAATA | 0.042
CACTCTGG | 0.0408
CGTACTTA | -0.117
CACCACCC | -0.0857
CAACCGCA | -0.122
ATGATCTC | -0.0762
CGTGAGTA | -0.0697
AAGCTCGC | 0.0111
GACCGCCA | -0.138
AACTTGGG | 0.0372
CAACTAGG | 0.0628
GATGCAGC | 0.137
CAATTTCC | 0.173
ATACATCC | -0.132
AACTTCCA | 0.349
AATCCATT | 0.198
AGGCCGAT | -0.0227
AGCGCTGG | 0.0319
GCAGCAAC | 0.227
TATGTCCA | -0.0573
ATGAACCC | 0.0541
CGGGAGCA | -0.109

Sequence | PBM E-score
CACTTTGC | -0.13
GGTGCAGA | 0.117
AATTGCCT | -0.0735
CCGTCTTC | -0.038
AGACCCAT | -0.152
ACGGAGAA | -0.0639
CACCAAAG | 0.047
CTACCTGA | 0.0704
CTCCCTGA | -0.0844
AAGCTAAC | 0.137
ATATTGAG | -0.016
CAAATATC | 0.0741
GTACCAGA | 0.182
GATAGCTA | -0.0442
CGACTGAC | -0.135
ACGCTTCT | 0.155
CCCGTACA | 0.03
CAATCTTC | 0.119
GTGCAGTA | -0.045
GAGCTGGA | -0.187
GCCAACAC | 0.0149
ATCACTCC | -0.0513
CACGCCCC | 0.149
ATACGCAG | 0.281
TGGTTTAA | -0.0736

Sequence | PBM E-score
ATCTCGTG | 0.0146
ATTCCCCC | -0.132
CTGGGCCC | 0.0964
CCTAGTCG | -0.0382
CTACGAGC | -0.265
ACGCTGTC | -0.0601
AAGGCCTC | -0.217
ATATTTTC | 0.0715
ACTCAAGA | -0.0735
CTGCACAC | 0.0366
CGACGCTC | 0.0463
GTTTGCAA | -0.00371
AGGTTGTC | -0.051
ATCTCTGC | -0.132
AGATAGCG | 0.0872
AACGACCG | -0.184
AGTAAATA | -0.00533
AACAATGT | 0.0351
AATTGGGA | 0.148
AACCTGTG | 0.00599
TAACGCTA | -0.0674
ATGGCTTG | -0.236
